What all share (assay): co-IP; HEK293T cells co-transfected with the FLAG-tagged import receptor and EYFP-UL6 for 24 h; lysate incubated with anti-Flag mAb or mouse IgG control and Protein A/G PLUS-Agarose for at least 4 h or overnight at 4 °C; beads washed three times with lysis buffer; IB with anti-Flag mAb and anti-YFP pAb
For assay [1], the target named is importin α3 (karyopherin α4, kα4), Flag-tagged (UniProt O00629).
The target of assay [2] is importin α5 (karyopherin α1, kα1), Flag-tagged (UniProt P52294).
In assay [3] the target is importin α7 (karyopherin α6, kα6), Flag-tagged (UniProt O60684).
The target of assay [4] is importin β1 (karyopherin β1, kβ1), 3×Flag-tagged (UniProt Q14974).
The target in assay [5] is transportin-1 (importin β2), FLAG-tagged (UniProt Q92973).

No constants are given. Whether binding was seen depends on the method and setting. In cells and extracts the contact can be indirect. Some entries that bind do so weakly or less than the wild type.

“herpes simplex virus 1 (HSV-1) UL6, EYFP-tagged (from UniProt P10190 1-676)”: the binding entry in assay [1] is “no binding”; in assay [2], “no binding”; in assay [3], “binds”; in assay [4] it was “no binding”; in assay [5] it was “binds”.

The record behind these values is publication PMC7185102.
